Measured values as given in publication PMC11589869.
Substitutions are numbered along the chain they refer to. Results are given in words; binding and its absence hold for the method and conditions named. Binding seen in cells or lysates may run through a third protein. Some binding calls cover weakened binding; strength is not graded here. Where a sequence is shown, tags or fusion partners need not be part of it.

Chains of the proteins cited; added tags and fusions are not shown.
UniProt P63044: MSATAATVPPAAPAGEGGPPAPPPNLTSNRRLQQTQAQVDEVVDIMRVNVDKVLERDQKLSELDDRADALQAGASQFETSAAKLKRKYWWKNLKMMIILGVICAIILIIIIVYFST
UniProt P46096: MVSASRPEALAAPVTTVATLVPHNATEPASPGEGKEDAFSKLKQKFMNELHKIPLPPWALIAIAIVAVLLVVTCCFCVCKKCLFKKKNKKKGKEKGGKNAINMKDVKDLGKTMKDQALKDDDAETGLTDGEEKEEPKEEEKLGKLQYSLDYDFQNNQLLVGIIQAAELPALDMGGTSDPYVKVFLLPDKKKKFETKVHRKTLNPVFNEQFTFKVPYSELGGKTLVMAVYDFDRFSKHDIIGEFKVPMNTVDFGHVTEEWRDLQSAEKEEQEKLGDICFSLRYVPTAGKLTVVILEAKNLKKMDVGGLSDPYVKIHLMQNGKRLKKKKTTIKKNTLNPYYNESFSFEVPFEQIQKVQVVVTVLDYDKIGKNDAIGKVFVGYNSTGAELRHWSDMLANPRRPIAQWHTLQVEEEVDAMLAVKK

Assays:
Assay in all cases: pull-down; GST fusion protein immobilised on glutathione beads, incubated with Triton X-100 extract of mouse brain homogenate (2 hr, room temperature; 130 mM NaCl, 50 mM HEPES, 1 mM EDTA, Triton X-100, pH 7.3); bound proteins eluted by thrombin cleavage; SDS-PAGE and western blotting; only the target purified
[1] = molecular target: T1, GST-CpxII CTD L124E-L128E (mouse) (UniProt P84086)
T1 sequence: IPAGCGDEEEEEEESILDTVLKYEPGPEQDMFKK

[2] = molecular target: T2, GST-CpxII CTD (Complexin II C-terminal domain, wild type) (mouse) (UniProt P84086)
T2 sequence: T1 sequence with E24L, E28L

[3] = molecular target: T3, GST-CpxII CTD L124W-L128W (mouse) (UniProt P84086)
T3 sequence: T1 sequence with E24W, E28W

Row | Substance | binding [1] | binding [2] | binding [3]
1 | SynaptobrevinII (SybII) (from UniProt P63044 1-116) | no binding | binds weakly | binds
2 | Synaptotagmin I (SytI) (from UniProt P46096 1-421) | no binding | binds | binds
